# Measurements from the supplement of paper PMC3334620.
# The full ranking holds about 33,000 sequences; the median of “E-score (-0.5 to 0.5)” is about -0.04, and the highest 2% start at about 0.36. This is one part of the list.
# Target: T1, Hmlalpha2 (UniProt P0CY09)
# T1 sequence: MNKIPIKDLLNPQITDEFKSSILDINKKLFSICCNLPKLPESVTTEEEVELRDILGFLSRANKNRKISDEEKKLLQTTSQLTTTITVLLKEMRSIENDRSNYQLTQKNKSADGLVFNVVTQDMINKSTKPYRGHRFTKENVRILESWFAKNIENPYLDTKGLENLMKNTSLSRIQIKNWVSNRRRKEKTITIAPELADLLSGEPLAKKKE
# Test: PBM E-score (8-mer binding enrichment) (E-score (-0.5 to 0.5)); higher = stronger / more preferred TF binding; most listed sequences are background and not binding sites
# Conditions: protein concentration: 200 nM; construct: GST-full length
# Outline: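 Detection of bound protein used fluorescent anti-GST, with scans normalised by masliner. The proteins were GST-tagged yeast transcription factors applied at about 100-200 nM to universal all-10-mer Agilent arrays made double-stranded by primer extension. Each ungapped eight-base word, pooled with its reverse complement, was scored with an E-score from the Universal PBM Analysis Suite.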
row,Sequence,PBM E-score
1,AGACCTCC,-0.232
2,ACGTACGC,0.292
3,GTAAGTTA,0.213
4,ATCTGGTA,0.162
5,CAAGCATC,-0.173
6,ATGCATGG,0.207
7,TATATATA,0.361
8,AGGGAATA,0.0329
9,CAGGTGCA,-0.0907
10,GTGAGCAC,-0.00337
11,CAACATAA,0.359
12,CAAATCGG,-0.208
13,CACGATCG,0.137
14,AATGGGAC,-0.288
15,CGGGACCC,-0.354
16,ATTATGAC,0.107
17,CTTGAGGA,-0.227
18,CACGCTCG,0.0339
19,CTTTGTTA,0.324
20,AGCGCCCC,-0.363
21,ACCCGTCA,-0.224
22,AGTGCAAA,0.178
23,AAATACAC,0.431
24,CAACTGCA,0.0885
25,CGATATAG,0.051

row,Sequence,PBM E-score
1,ACGTCACA,0.143
2,CAGCTAGG,-0.177
3,CACGTCTG,0.084
4,CGGTGAAC,-0.0685
5,GGGCGACC,-0.382
6,GCGGAACA,-0.184
7,ACATATGA,0.26
8,GTCGTCCA,-0.121
9,CGGACTCC,-0.0792
10,AGGGTTAG,-0.0069
11,AAGACCGG,-0.294
12,CCTCAGGC,-0.32
13,ACCCTTAC,0.0252
14,CGATAAAA,0.0667
15,CTTTCAAC,0.149
16,AACCTTGC,-0.156
17,AGGTACGA,-0.162
18,GATGAATA,0.185
19,GAAGCAGA,-0.156
20,AAACAGCT,-0.0533
21,GAAGCCAC,-0.114
22,CACACTTC,0.143
23,AGTAGACA,0.093
24,CATTGCCG,0.0323
25,CCCGTCAA,-0.146

row,Sequence,PBM E-score
1,AACCTAAA,0.174
2,AGATGATA,0.127
3,AGAGTCAG,-0.183
4,ATTGTGTA,0.42
5,AGCAGGAG,-0.0702
6,GTGTCGAA,0.229
7,CCGACTTA,-0.058
8,AACAAAGG,0.00375
9,CCACCACA,0.0106
10,CCTTGACA,0.182
11,CTTTTTGA,-0.0352
12,ACATATCT,0.305
13,AATGTGTG,0.0802
14,CGCTGTTA,0.12
15,ACTTAGCC,0.0449
16,AACCCTGG,-0.204
17,AGTGGGTG,-0.0299
18,GCGTCGAC,0.0467
19,CATCCATC,-0.169
20,GTTCTTGA,0.101
21,CCGAGTGC,-0.288
22,CCCTTACA,0.205
23,CATGTTCA,0.338
24,AATCCTGA,-0.079
25,GAGCCCTA,-0.285

row,Sequence,PBM E-score
1,ATCGTTCG,-0.0141
2,ATTAGTAA,0.206
3,CGTATACA,0.377
4,CACGAATC,0.179
5,ATTGGGAA,-0.195
6,CTATTCCC,-0.203
7,TGCTTTAA,0.153
8,GCGGCCCA,-0.279
9,GACGTTCA,-0.0369
10,CTACATTC,0.0322
11,GCCCGTCA,-0.298
12,GGAAAACC,-0.12
13,CTGGAAAC,0.0892
14,GCTACACA,0.323
15,AACGACTC,-0.111
16,CAGCGCGC,-0.142
17,ACCGGCAG,-0.37
18,CACTTCTG,-0.181
19,CATTTTTA,0.081
20,GCTACGAC,-0.00978
21,CACTAATC,-0.0861
22,AGCTGCTA,-0.0148
23,AATGAATC,-0.0655
24,CATGAGTC,0.175
25,TAGAGCCA,-0.119

row,Sequence,PBM E-score
1,AACGAATC,0.11
2,TACATGCA,0.438
3,ACTTTGCA,0.177
4,ACCGATCA,0.0428
5,CCAGCCTA,-0.265
6,CCGTGTTC,0.328
7,TACTCAAA,0.087
8,ATTGGTAC,-0.0832
9,ACCCAACT,-0.136
10,CAAAAACA,0.203
11,AATGCTCG,0.0169
12,AACCCCGC,-0.271
13,CAATAAAC,0.0358
14,AATTGTTA,0.19
15,CCCTTCCA,-0.225
16,ACGATATC,0.0761
17,GATTGAAC,0.181
18,ACATATCC,0.211
19,TAGATGCA,-0.0743
20,GAGCCTCC,-0.163
21,ACTGTTCC,-0.221
22,ACGAGAAA,0.133
23,AAGTCCCG,-0.154
24,AAATTGTC,0.0749
25,AGCTTTGC,-0.176

row,Sequence,PBM E-score
1,AAGTTAAT,0.187
2,ACGTTACA,0.347
3,AACAGCGG,-0.234
4,GGTGGAAC,-0.0488
5,CGGGCTAG,-0.291
6,TCTCGAAA,-0.0582
7,AGTCGCGG,-0.266
8,CACTAGAG,-0.0668
9,TGCGGAAA,-0.146
10,ACGGACGT,-0.00462
11,GATGAGCA,0.131
12,CAATTGCA,-0.0992
13,CACAAAGC,0.129
14,AATAGAAA,0.00298
15,GTCCGCAC,-0.0582
16,ATGTGCGC,0.127
17,CGGCTTCA,-0.0707
18,CAGTGGAG,-0.232
19,CCCGACCA,-0.239
20,CGCTCGGC,-0.27
21,AGGCGTAG,-0.168
22,ACAAGCAG,0.121
23,CACTTGCG,-0.0934
24,CCTCTCAA,-0.144
25,CAGTGAGG,-0.244

row,Sequence,PBM E-score
1,GGTTCGAA,-0.0183
2,CCACCTTC,-0.199
3,CCCCGCAA,0.00265
4,CGGATTTC,-0.196
5,CAGGAGTA,-0.0204
6,AGAGTTTC,-0.0973
7,GAACCCTA,0.0243
8,TCAGGGGA,-0.182
9,AAATCTCG,0.0861
10,AGTCCCAT,-0.194
11,TCTGTCCA,-0.0836
12,AAGCCAGC,-0.0424
13,CTTCTATC,-0.239
14,CCGGCCTA,-0.0401
15,CGTGGCTC,-0.209
16,ATGTGAGA,-0.0137
17,ATAGTCGC,-0.0918
18,CAACCCTA,-0.0776
19,ATCATTAC,0.329
20,ATACTGTG,0.0506
21,ATTACTCG,0.348
22,CCTCGCCC,-0.178
